# From the supplement of paper PMC8728848
# This is one part of the list.
# B1: ECA (Erythrina cristagalli), P83410 (protein)
# chain: VETISFSFSEFEPGNDNLTLQGAALITQSGVLQLTKINQNGMPAWDSTGRTLYTKPVHMWDSTTGTVASFETRFSFSIEQPYTRPLPADGLVFFMGPTKSKPAQGYGYLGVFNNSKQDNSYQTLAVEFDTFSNPWDPPQVPHIGIDVNSIRSIKTQPFQLDNGQVANVVIKYDAPSKILHVVLVYPSSGAIYTIAEIVDVKQVLPDWVDVGLSGATGAQRDAAETHDVYSWSFQASLPE
# Key:
# Assay in all cases: glycan array binding signal (z-score within array); higher = stronger binding
# Details in all cases: glycan notation: IUPAC condensed, linker removed
# [1] = molecular target: Fuc(a1-3)[Gal(b1-4)]GlcNAc6S
# Summary of the method: (§1)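 Glycan array data were curated from 3228 arrays in the Consortium for Functional Glycomics database and kept only where the protein sequence was available. Glycan names were converted to IUPAC-condensed notation, and columns mapping to the same glycan were averaged. The binding signal is a within-array Z-score, averaged across arrays of the same protein sequence at different concentrations or buffers and across linkers. Negative Z-scores can be read as non-binding.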
# [2] = molecular target: Fuc(a1-3)[Gal3S(b1-4)]Glc
# Summary of the method: as §1
# [3] = molecular target: Fuc(a1-3)[Gal3S(b1-4)]GlcNAc
# Summary of the method: as §1
# [4] = molecular target: Fuc(a1-3)[Gal3S(b1-4)]GlcNAc6S
# Summary of the method: as §1
# [5] = molecular target: Fuc(a1-3)[GalNAc(b1-4)]GlcNAc
# Summary of the method: as §1
# [6] = molecular target: Fuc(a1-3)[GalNAc(b1-4)]GlcNAc6S
# Summary of the method: as §1
# [7] = molecular target: Fuc(a1-4)GlcNAc
# Summary of the method: as §1
# [8] = molecular target: Fuc(b1-3)GlcNAc
# Summary of the method: as §1
# [9] = molecular target: Gal(a1-2)Gal
# Summary of the method: as §1
# [10] = molecular target: Gal(a1-3)Gal
# Summary of the method: as §1
# [11] = molecular target: Gal(a1-3)Gal(b1-3)GlcNAc
# Summary of the method: as §1
# [12] = molecular target: Gal(a1-3)Gal(b1-3)GlcNAc(b1-2)Man
# Summary of the method: as §1
# [13] = molecular target: Gal(a1-3)Gal(b1-3)GlcNAc(b1-2)Man(a1-3)[Gal(a1-3)Gal(b1-3)GlcNAc(b1-2)Man(a1-6)]Man(b1-4)GlcNAc(b1-4)GlcNAc
# Summary of the method: as §1
# [14] = molecular target: Gal(a1-3)Gal(b1-3)GlcNAc(b1-3)GalNAc
# Summary of the method: as §1
# [15] = molecular target: Gal(a1-3)Gal(b1-3)GlcNAc(b1-6)GalNAc
# Summary of the method: as §1
# [16] = molecular target: Gal(a1-3)Gal(b1-3)[Fuc(a1-4)]GlcNAc(b1-2)Man(a1-3)[Gal(a1-3)Gal(b1-3)[Fuc(a1-4)]GlcNAc(b1-2)Man(a1-6)]Man(b1-4)GlcNAc(b1-4)GlcNAc
# Summary of the method: as §1
# [17] = molecular target: Gal(a1-3)Gal(b1-4)Glc
# Summary of the method: as §1
# [18] = molecular target: Gal(a1-3)Gal(b1-4)GlcNAc
# Summary of the method: as §1
# [19] = molecular target: Gal(a1-3)Gal(b1-4)GlcNAc(b1-2)Man
# Summary of the method: as §1
# [20] = molecular target: Gal(a1-3)Gal(b1-4)GlcNAc(b1-2)Man(a1-3)[Gal(a1-3)Gal(b1-4)GlcNAc(b1-2)Man(a1-6)]Man(b1-4)GlcNAc(b1-4)GlcNAc
# Summary of the method: as §1
# [21] = molecular target: Gal(a1-3)Gal(b1-4)GlcNAc(b1-3)GalNAc
# Summary of the method: as §1
# [22] = molecular target: Gal(a1-3)Gal(b1-4)GlcNAc(b1-6)GalNAc
# Summary of the method: as §1
# [23] = molecular target: Gal(a1-3)Gal(b1-4)[Fuc(a1-3)]GlcNAc
# Summary of the method: as §1
# [24] = molecular target: Gal(a1-3)Gal(b1-4)[Fuc(a1-3)]GlcNAc(b1-2)Man(a1-3)[Gal(a1-3)Gal(b1-4)[Fuc(a1-3)]GlcNAc(b1-2)Man(a1-6)]Man(b1-4)GlcNAc(b1-4)GlcNAc
# Summary of the method: as §1
# [25] = molecular target: Gal(a1-3)GalNAc
# Summary of the method: as §1
# [26] = molecular target: Gal(a1-3)[Gal(a1-4)]Gal(b1-4)GlcNAc
# Summary of the method: as §1
# [27] = molecular target: Gal(a1-4)Gal(b1-3)GlcNAc(b1-2)Man(a1-3)[Gal(a1-4)Gal(b1-3)GlcNAc(b1-2)Man(a1-6)]Man(b1-4)GlcNAc(b1-4)GlcNAc
# Summary of the method: as §1
# [28] = molecular target: Gal(a1-4)Gal(b1-4)Glc
# Summary of the method: as §1
# [29] = molecular target: Gal(a1-4)Gal(b1-4)GlcNAc
# Summary of the method: as §1
# [30] = molecular target: Gal(a1-4)Gal(b1-4)GlcNAc(b1-2)Man(a1-3)[Gal(a1-4)Gal(b1-4)GlcNAc(b1-2)Man(a1-6)]Man(b1-4)GlcNAc(b1-4)GlcNAc
# Summary of the method: as §1
# [31] = molecular target: Gal(a1-4)Gal(b1-4)GlcNAc(b1-3)Gal(b1-4)Glc
# Summary of the method: as §1
# [32] = molecular target: Gal(a1-4)GlcNAc
# Summary of the method: as §1
# [33] = molecular target: Gal(a1-6)Glc
# Summary of the method: as §1
# [34] = molecular target: Gal(b1-2)Gal
# Summary of the method: as §1
# [35] = molecular target: Gal(b1-3)Gal
# Summary of the method: as §1
# [36] = molecular target: Gal(b1-3)Gal(b1-4)GlcNAc
# Summary of the method: as §1
# [37] = molecular target: Gal(b1-3)GalNAc
# Summary of the method: as §1
# [38] = molecular target: Gal(b1-3)GalNAc(a1-3)[Fuc(a1-2)]Gal(b1-4)Glc
# Summary of the method: as §1
# [39] = molecular target: Gal(b1-3)GalNAc(a1-3)[Fuc(a1-2)]Gal(b1-4)GlcNAc
# Summary of the method: as §1
# [40] = molecular target: Gal(b1-3)GalNAc(b1-3)Gal
# Summary of the method: as §1
# [41] = molecular target: Gal(b1-3)GalNAc(b1-3)Gal(a1-4)Gal(b1-4)Glc
# Summary of the method: as §1
# [42] = molecular target: Gal(b1-3)GalNAc(b1-4)Gal(b1-4)Glc
# Summary of the method: as §1
# [43] = molecular target: Gal(b1-3)GalNAc(b1-4)[Neu5Ac(a2-3)]Gal(b1-4)Glc
# Summary of the method: as §1
# [44] = molecular target: Gal(b1-3)GlcNAc
# Summary of the method: as §1
# [45] = molecular target: Gal(b1-3)GlcNAc(a1-3)Gal(b1-4)GlcNAc
# Summary of the method: as §1
binder,measurement,setting,value
B1,glycan array binding signal (z-score),[1],-0.02
same,glycan array binding signal (z-score),[2],-0.283
same,glycan array binding signal (z-score),[3],-0.127
same,glycan array binding signal (z-score),[4],0.476
same,glycan array binding signal (z-score),[5],-0.226
same,glycan array binding signal (z-score),[6],0.062
same,glycan array binding signal (z-score),[7],-0.286
same,glycan array binding signal (z-score),[8],-0.187
same,glycan array binding signal (z-score),[9],-0.302
same,glycan array binding signal (z-score),[10],-0.243
same,glycan array binding signal (z-score),[11],-0.26
same,glycan array binding signal (z-score),[12],-0.29
same,glycan array binding signal (z-score),[13],0.504
same,glycan array binding signal (z-score),[14],-0.285
same,glycan array binding signal (z-score),[15],-0.329
same,glycan array binding signal (z-score),[16],0.425
same,glycan array binding signal (z-score),[17],-0.362
same,glycan array binding signal (z-score),[18],-0.277
same,glycan array binding signal (z-score),[19],-0.517
same,glycan array binding signal (z-score),[20],-0.041
same,glycan array binding signal (z-score),[21],-0.544
same,glycan array binding signal (z-score),[22],-0.319
same,glycan array binding signal (z-score),[23],-0.129
same,glycan array binding signal (z-score),[24],10.5
same,glycan array binding signal (z-score),[25],-0.144
same,glycan array binding signal (z-score),[26],-0.103
same,glycan array binding signal (z-score),[27],0.58
same,glycan array binding signal (z-score),[28],-0.224
same,glycan array binding signal (z-score),[29],-0.173
same,glycan array binding signal (z-score),[30],-0.264
same,glycan array binding signal (z-score),[31],-0.368
same,glycan array binding signal (z-score),[32],-0.291
same,glycan array binding signal (z-score),[33],-0.217
same,glycan array binding signal (z-score),[34],-0.137
same,glycan array binding signal (z-score),[35],-0.296
same,glycan array binding signal (z-score),[36],-0.414
same,glycan array binding signal (z-score),[37],-0.392
same,glycan array binding signal (z-score),[38],-0.784
same,glycan array binding signal (z-score),[39],-0.421
same,glycan array binding signal (z-score),[40],-0.426
same,glycan array binding signal (z-score),[41],-0.259
same,glycan array binding signal (z-score),[42],-0.205
same,glycan array binding signal (z-score),[43],-0.291
same,glycan array binding signal (z-score),[44],-0.27
same,glycan array binding signal (z-score),[45],-0.509
